Test results taken from the supplement of paper PMC8728848.
The other results are listed elsewhere or left out.

How the values were obtained:
Assay in all cases: glycan array binding signal (z-score within array); higher = stronger binding
Conditions in all cases: glycan notation: IUPAC condensed, linker removed
Man(b1-4)GlcNAc = biological target: Man(b1-4)GlcNAc
How it was run: (§1)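 The binding signal is a Z-score computed within each array and averaged over linkers. Arrays of the same protein sequence at different concentrations or buffers were also averaged together. Data originate from 3228 arrays in the Consortium for Functional Glycomics database, kept only where the protein sequence was available.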

Neu5Ac(a2-3)Gal = biological target: Neu5Ac(a2-3)Gal
How it was run: as §1

[1] = biological target: Neu5Ac(a2-3)Gal(b1-3)GalNAc
How it was run: as §1

[2] = biological target: Neu5Ac(a2-3)Gal(b1-3)GalNAc(b1-3)Gal(a1-4)Gal(b1-4)Glc
How it was run: as §1

[3] = biological target: Neu5Ac(a2-3)Gal(b1-3)GalNAc(b1-3)Gal(b1-4)GlcNAc
How it was run: as §1

[4] = biological target: Neu5Ac(a2-3)Gal(b1-3)GalNAc(b1-4)[Neu5Ac(a2-3)]Gal(b1-4)Glc
How it was run: as §1

[5] = biological target: Neu5Ac(a2-3)Gal(b1-3)GalNAc(b1-4)[Neu5Ac(a2-8)Neu5Ac(a2-3)]Gal(b1-4)Glc
How it was run: as §1

[6] = biological target: Neu5Ac(a2-3)Gal(b1-3)GalNAc6S
How it was run: as §1

[7] = biological target: Neu5Ac(a2-3)Gal(b1-3)GlcNAc
How it was run: as §1

[8] = biological target: Neu5Ac(a2-3)Gal(b1-3)GlcNAc(b1-3)Gal(b1-3)GlcNAc
How it was run: as §1

[9] = biological target: Neu5Ac(a2-3)Gal(b1-3)GlcNAc(b1-3)Gal(b1-4)GlcNAc
How it was run: as §1

[10] = biological target: Neu5Ac(a2-3)Gal(b1-3)GlcNAc(b1-3)GalNAc
How it was run: as §1

[11] = biological target: Neu5Ac(a2-3)Gal(b1-3)GlcNAc6S
How it was run: as §1

[12] = biological target: Neu5Ac(a2-3)Gal(b1-3)[Fuc(a1-4)]GlcNAc
How it was run: as §1

[13] = biological target: Neu5Ac(a2-3)Gal(b1-3)[Fuc(a1-4)]GlcNAc(b1-3)Gal(b1-3)[Fuc(a1-4)]GlcNAc
How it was run: as §1

[14] = biological target: Neu5Ac(a2-3)Gal(b1-3)[Fuc(a1-4)]GlcNAc(b1-3)Gal(b1-4)[Fuc(a1-3)]GlcNAc
How it was run: as §1

[15] = biological target: Neu5Ac(a2-3)Gal(b1-3)[Neu5Ac(a2-3)Gal(b1-4)]GlcNAc
How it was run: as §1

[16] = biological target: Neu5Ac(a2-3)Gal(b1-3)[Neu5Ac(a2-6)]GalNAc
How it was run: as §1

Neu5Ac(a2-3)Gal(b1-4)Glc = biological target: Neu5Ac(a2-3)Gal(b1-4)Glc
How it was run: as §1

[17] = biological target: Neu5Ac(a2-3)Gal(b1-4)GlcNAc
How it was run: as §1

[18] = biological target: Neu5Ac(a2-3)Gal(b1-4)GlcNAc(b1-2)Man(a1-3)[GlcNAc(b1-2)Man(b1-4)GlcNAc(b1-2)Man(a1-6)]Man(b1-4)GlcNAc(b1-4)GlcNAc
How it was run: as §1

[19] = biological target: Neu5Ac(a2-3)Gal(b1-4)GlcNAc(b1-2)Man(a1-3)[Neu5Ac(a2-6)Gal(b1-4)GlcNAc(b1-2)Man(a1-6)]Man(b1-4)GlcNAc(b1-4)GlcNAc
How it was run: as §1

[20] = biological target: Neu5Ac(a2-3)Gal(b1-4)GlcNAc(b1-3)Gal
How it was run: as §1

[21] = biological target: Neu5Ac(a2-3)Gal(b1-4)GlcNAc(b1-3)Gal(b1-3)GlcNAc
How it was run: as §1

[22] = biological target: Neu5Ac(a2-3)Gal(b1-4)GlcNAc(b1-3)Gal(b1-4)GlcNAc
How it was run: as §1

[23] = biological target: Neu5Ac(a2-3)Gal(b1-4)GlcNAc(b1-3)Gal(b1-4)GlcNAc(b1-3)Gal(b1-4)GlcNAc
How it was run: as §1

[24] = biological target: Neu5Ac(a2-3)Gal(b1-4)GlcNAc(b1-3)Gal(b1-4)[Fuc(a1-3)]GlcNAc
How it was run: as §1

[25] = biological target: Neu5Ac(a2-3)Gal(b1-4)GlcNAc(b1-3)GalNAc
How it was run: as §1

[26] = biological target: Neu5Ac(a2-3)Gal(b1-4)GlcNAc(b1-6)[Gal(b1-3)]GalNAc
How it was run: as §1

[27] = biological target: Neu5Ac(a2-3)Gal(b1-4)GlcNAc(b1-6)[Neu5Ac(a2-3)Gal(b1-3)]GalNAc
How it was run: as §1

[28] = biological target: Neu5Ac(a2-3)Gal(b1-4)GlcNAc6S
How it was run: as §1

[29] = biological target: Neu5Ac(a2-3)Gal(b1-4)[Fuc(a1-3)]GlcNAc
How it was run: as §1

[30] = biological target: Neu5Ac(a2-3)Gal(b1-4)[Fuc(a1-3)]GlcNAc(b1-3)Gal
How it was run: as §1

[31] = biological target: Neu5Ac(a2-3)Gal(b1-4)[Fuc(a1-3)]GlcNAc(b1-3)Gal(b1-4)GlcNAc
How it was run: as §1

[32] = biological target: Neu5Ac(a2-3)Gal(b1-4)[Fuc(a1-3)]GlcNAc(b1-3)Gal(b1-4)[Fuc(a1-3)]GlcNAc(b1-3)Gal(b1-4)[Fuc(a1-3)]GlcNAc
How it was run: as §1

[33] = biological target: Neu5Ac(a2-3)Gal(b1-4)[Fuc(a1-3)]GlcNAc(b1-3)GalNAc
How it was run: as §1

[34] = biological target: Neu5Ac(a2-3)Gal(b1-4)[Fuc(a1-3)]GlcNAc(b1-6)[Gal(b1-3)]GalNAc
How it was run: as §1

B1: BC2L-D C-terminal domain (Burkholderia cenocepacia), Q39MQ9_BURS3 (protein)
chain: LVIVDAVTLLSAYPEASRDPAAPTVIDGRHLYVVSPGDAAQLGHNDSRLFTGLSPGDQLHLRETALALRAEVSVLFIRFALKDAGIVAPIELEVRDAATAVPDADDLLHPSCRPLKDHYWRSDVLAAGATTCTADFAVCDRDGTVSGYFRWETSIEIAGSQPDTKQPGFKPSSDRNGNFSLPPNTAFKAIFYANAADRQDLKLFIDDAPEPAATFVGNSEDGVRLFTLNSKGGKIRIEASANGRQSATDARLAPLSAGDTVWLGWLGAEDGADADYNDGIVILQWPIT
B1 was tested, and the “glycan array binding signal (z-score)” value (Man(b1-4)GlcNAc) was -0.244, the “glycan array binding signal (z-score)” value (Neu5Ac(a2-3)Gal) was -0.245 and the “glycan array binding signal (z-score)” value [1] was -0.242. For the same binder, the “glycan array binding signal (z-score)” value [2] was -0.239, the “glycan array binding signal (z-score)” value [3] was -0.297 and the “glycan array binding signal (z-score)” value [4] was -0.239. The “glycan array binding signal (z-score)” value [5] was -0.154, the “glycan array binding signal (z-score)” value [6] was -0.248 and the “glycan array binding signal (z-score)” value [7] was -0.243. The “glycan array binding signal (z-score)” value [8] was -0.233, the “glycan array binding signal (z-score)” value [9] was -0.164 and the “glycan array binding signal (z-score)” value [10] was -0.161. The “glycan array binding signal (z-score)” value [11] was -0.243, the “glycan array binding signal (z-score)” value [12] was 0.051 and the “glycan array binding signal (z-score)” value [13] was 0.899. The “glycan array binding signal (z-score)” value [14] was 0.621, the “glycan array binding signal (z-score)” value [15] was -0.242 and the “glycan array binding signal (z-score)” value [16] was -0.197. For the same binder, the “glycan array binding signal (z-score)” value (Neu5Ac(a2-3)Gal(b1-4)Glc) was -0.248, the “glycan array binding signal (z-score)” value [17] was -0.242 and the “glycan array binding signal (z-score)” value [18] was -0.245. For the same binder, the “glycan array binding signal (z-score)” value [19] was -0.238, the “glycan array binding signal (z-score)” value [20] was -0.158 and the “glycan array binding signal (z-score)” value [21] was -0.246. For the same binder, the “glycan array binding signal (z-score)” value [22] was -0.242, the “glycan array binding signal (z-score)” value [23] was -0.244 and the “glycan array binding signal (z-score)” value [24] was -0.241. The “glycan array binding signal (z-score)” value [25] was -0.242, the “glycan array binding signal (z-score)” value [26] was -0.243 and the “glycan array binding signal (z-score)” value [27] was -0.244. The “glycan array binding signal (z-score)” value [28] was -0.244, the “glycan array binding signal (z-score)” value [29] was -0.215 and the “glycan array binding signal (z-score)” value [30] was -0.22. The “glycan array binding signal (z-score)” value [31] was -0.172, the “glycan array binding signal (z-score)” value [32] was 0.036 and the “glycan array binding signal (z-score)” value [33] was -0.175. The “glycan array binding signal (z-score)” value [34] was -0.232.
